Source: the BET-seq Pho4 binding data (Le et al. 2018)
Some of the results follow. The energies were worked out here from pooled read counts, against the library average; single values are noisy.

Molecular target: T1, Pho4 (S. cerevisiae) (UniProt P07270)
T1 sequence: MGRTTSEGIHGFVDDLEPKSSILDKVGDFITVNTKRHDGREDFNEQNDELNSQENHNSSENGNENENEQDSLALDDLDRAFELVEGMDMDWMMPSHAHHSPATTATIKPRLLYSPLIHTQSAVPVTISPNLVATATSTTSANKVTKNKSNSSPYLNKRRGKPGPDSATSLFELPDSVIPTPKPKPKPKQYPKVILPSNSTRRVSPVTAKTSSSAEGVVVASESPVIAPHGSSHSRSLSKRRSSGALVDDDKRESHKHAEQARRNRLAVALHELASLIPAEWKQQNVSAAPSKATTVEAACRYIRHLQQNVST
Experiment: relative binding free energy (BET-seq); higher = weaker binding
Conditions: reference: library average

Sequence	relative binding free energy [kcal/mol]
CGTGTCACGTGCGTGT	-0.03
GGGTTCACGTGCACAG	0.24
GTGGTCACGTGAGGCC	0.24
AGGGTCACGTGTTCAA	0.09
TAGGGCACGTGGGCTG	-0.2
ATTTTCACGTGAAGCG	0.48
GGTCGCACGTGCTTTG	-0.12
TGACACACGTGATGGG	0.12
AATGTCACGTGTTGAT	0.18
AAGGGCACGTGAATAT	0.13
ATTGGCACGTGAAAAG	0.11
TGAGTCACGTGTTATT	0.08
TCGGGCACGTGTACTT	0.09
TTAAGCACGTGAATGG	0.18
TCTGGCACGTGTAGTG	0.08
TTTCACACGTGGGTAT	0.02
TGTACCACGTGTGAGC	0.23
CATTGCACGTGGTAGG	-0.2
GGATACACGTGGGGGA	0
TTAGACACGTGGTATG	-0.21
CGTCGCACGTGGTGAG	-0.19
TGGTGCACGTGAGCTG	0.27
TGTGCCACGTGTATGA	-0.05
CGGGACACGTGGGAGG	-0.03
ATTTGCACGTGGGCGC	-0.16

Sequence	relative binding free energy [kcal/mol]
GGAGTCACGTGGGCGG	0.01
AGTAGCACGTGGGGTA	-0.26
GTAGGCACGTGGGGGG	-0.16
GTCTGCACGTGTTGTT	0.13
TATTTCACGTGGTCAA	0.24
TGTGGCACGTGAGGTG	0.22
GGTTTCACGTGATCTG	0.28
ATTGTCACGTGTACGG	0.02
AAGTACACGTGGAAGT	0.29
GTTATCACGTGTCGGA	0.22
CGGTTCACGTGTTCTG	0.26
AGCGGCACGTGTTCGT	-0.02
GCTATCACGTGGTTTG	0.13
CGGGCCACGTGTGGTG	0
GGGAGCACGTGGAGTG	-0.09
GGCGGCACGTGACAGG	0.02
GATCGCACGTGTTGTA	0.04
TGGAGCACGTGTCGAT	-0.05
GAAGTCACGTGGGTAT	0.15
GGAATCACGTGCTGGG	0.25
GATGCCACGTGTGTTT	0.05
AAGGGCACGTGGTTGG	-0.19
GGGATCACGTGGTAGT	0.13
GCAAGCACGTGGGGGT	-0.23
TATGGCACGTGAGATT	0.06

Sequence	relative binding free energy [kcal/mol]
TGGACCACGTGATTGT	0.18
TAGGTCACGTGAGTCT	0.33
TTAAACACGTGAGGTA	0.09
GATGTCACGTGGTCTT	0.19
TTGTGCACGTGTGTCC	-0.06
AATTACACGTGAAATT	0.46
TGCATCACGTGTGTGA	0.08
AGTAGCACGTGTTCAG	-0.13
ATTGACACGTGGCGTA	-0.1
TGGGTCACGTGCGCTT	-0.06
TGATACACGTGCGTTA	-0.01
TGTGACACGTGAGATG	0.23
GGTGCCACGTGACTGG	0.01
TCACTCACGTGGTGGT	0.16
CGTCTCACGTGGGTTA	0.07
GTTTTCACGTGAAGCA	0.53
GGTGTCACGTGACACG	0.32
ATGTCCACGTGTGATT	0.03
TGAGACACGTGTTTAA	0.02
CGTGTCACGTGGGTTG	0.03
CTCGGCACGTGGTCGG	-0.08
AGGGGCACGTGTTATT	0
ATGTGCACGTGGTTTC	-0.15
CGGGTCACGTGGATGA	0.06
TTTAGCACGTGGGGGG	-0.23

Sequence	relative binding free energy [kcal/mol]
CTATTCACGTGGTCTG	0.25
TAATACACGTGGAGTG	-0.05
TCTGGCACGTGGACGG	-0.06
AGTATCACGTGGTTTC	0.14
ACTATCACGTGTGAGT	0.24
CTAGACACGTGTTGGT	0.11
ATTATCACGTGTTCAT	0.05
GGGGGCACGTGGAGCA	-0.19
TCGGGCACGTGAGTGT	0.19
GTGAGCACGTGTTCAG	-0.03
TTGTTCACGTGATAGG	0.46
AGGGACACGTGGCTAG	-0.04
AGTGTCACGTGGAGTT	0.08
CTAGACACGTGTTTTT	0.09
GATGCCACGTGAGTGT	0.26
GCGGGCACGTGTTGTC	-0.01
AGCAACACGTGTTGTG	-0.06
TGCGTCACGTGGGGAG	-0.04
TTGTACACGTGATAAA	0.3
CTTTACACGTGTTCGG	0.17
ATTGGCACGTGCATGT	-0.2
CATTTCACGTGGTTTG	0.26
CATTTCACGTGGCGTT	0.25
AGAATCACGTGTCGGT	0.07
TTGGACACGTGTTCTA	0.13

Sequence	relative binding free energy [kcal/mol]
AAATACACGTGTATTG	0
GTCGGCACGTGTCTGT	-0.01
GGTAACACGTGTATGG	0.03
AGAGGCACGTGATGAA	-0.07
ATTCTCACGTGTAGGA	0.12
AGAGGCACGTGTGGTC	-0.02
CAGATCACGTGTGTTA	0.28
ATATGCACGTGTTGAT	-0.11
TCTGGCACGTGGGTTT	-0.1
GTCTTCACGTGAGGTG	0.47
ATGTGCACGTGAGGTG	0.19
TAGTTCACGTGGTCCG	0.25
GTTTGCACGTGAACTT	0.18
GGAAGCACGTGGGGTA	-0.24
CGTGCCACGTGTGGAG	-0.1
TGATGCACGTGCGGGA	-0.04
GGTGGCACGTGACGGT	0.08
GTCGACACGTGCGGGT	-0.02
AATGGCACGTGTGTTC	-0.12
TAGGACACGTGGCTGG	-0.01
TTGTCCACGTGTTTGC	0.01
TTGGACACGTGACGTA	0.13
TTGAACACGTGGGTAG	-0.06
GAGGTCACGTGTAGTT	0.13
GGAGTCACGTGTTAGC	0.21

Sequence	relative binding free energy [kcal/mol]
CCATGCACGTGTTGGG	-0.08
AGGGTCACGTGACGGT	0.2
CAATGCACGTGGGAGG	-0.07
TTGGTCACGTGGTGTT	0.11
TAGATCACGTGGTGCG	0.15
GGTTTCACGTGTGCTT	0.19
CTTATCACGTGTGTGA	0.2
GTTGACACGTGGTGCG	-0.13
AGAGGCACGTGATTTG	-0.2
GGGATCACGTGCTATG	0.08
ACTATCACGTGGGTGG	-0.12
ATTGGCACGTGGGTCG	-0.33
CGAATCACGTGTGTTT	0.11
TGTCTCACGTGGGGGT	0.08
CGTGTCACGTGAATAG	0.24
GGGGTCACGTGGACTT	0.27
TTGATCACGTGGTTAT	0.14
GGTTGCACGTGTTATA	0.07
CGGTGCACGTGGCGCG	-0.13
GTATACACGTGTTCAT	0.1
TGGTGCACGTGGACGG	-0.05
